Data published in the supplement of paper PMC12217912.
Some of the results follow. Sequences were assembled here from the parent chain. Inactive controls read about 0.05.

B1: TEV protease; numbered along this chain (parent)
chain: MGESLFKGPRDYNPISSSICHLTNESDGHTTSLYGIGFGPFIITNKHLFRRNNGTLVVQSLHGVFKVKDTTTLQQHLVDGRDMIIIRMPKDFPPFPQKLKFREPQREERICLVTTNFQTKSMSSMVSDTSCTFPSGDGIFWKHWIQTKDGQCGSPLVSTRDGFIVGIHSASNFTNTNNYFTSVPKNFMELLTNQEAQQWVSGWRLNADSVLWGGHKVFMVKPEEPFQPVKEATQL

Variants of: B1
Test: raw area under fraction-flipped curve 0-4 h after induction (AUC4h, not background-subtracted), DNA-recorder readout of cleavage of the substrate (dimensionless); higher = more cleavage of the substrate by the protease variant
Settings: temperature: 34 °C; time window: 0-4 h after rhamnose induction
Protocol: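 In vivo DNA recorder in E. coli TOP10(DE3) ΔrhaA at 34 °C. Each TEVp single-site mutant (parent TEVp 0) is paired with a single-site variant of the 7-mer TEVs (canonical ENLYFQ|S). The substrate sits between flexible linkers in a Bxb1-sfGFP-TEVs-SsrA fusion, so cleavage stabilises Bxb1 and speeds flipping of a recombination array, read by NGS. The value is the raw area under the fraction-flipped curve over 0-4 h after rhamnose induction (AUC4h), with ≥20 reads per time point. It is not background-subtracted; inactive controls average about 0.047.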
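Note: Bxb1 expression induced with 0.2% (w/v) L-rhamnose at OD600 near 0.5, cultures sampled hourly, flipped fraction per protease–substrate barcode pair counted by paired-end Illumina sequencing.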

Variant | area with substrate ENLYFCS | area with substrate ENLYFES | area with substrate ENLYFFS | area with substrate ENLYFGS | area with substrate ENLYFHS | area with substrate ENLYFIS | area with substrate ENLYFKS | area with substrate ENLYFMS | area with substrate ENLYFNS | area with substrate ENLYFPS | area with substrate ENLYFRS | area with substrate ENLYFTS | area with substrate ENLYFYS | area with substrate ENLYFVS | area with substrate ENLYFWS | area with substrate ENLYFDS | area with substrate ENLYFLS | area with substrate ENLYFSS
MGESLFKGPRDYNPISSSICHLTNESDGHTTSLYGIGFGPFIITNKHLFRRNNGTLVVQSLHGVFKVKDTTTLQQHLVDGRDMIIIRMPKDFPPFPQKLKFREPQREERICLVTTNFQTKSMSSMVSDTSCTFPSGDGIFWKHWIQTKDGQCGSILVSTRDGFIVGIHSASNFTNTNNYFTSVPKNFMELLTNQEAQQWVSGWRLNADSVLWGGHKVFMVKPEEPFQPVKEATQL [P155I] | 0.0611 | 0.056 | 0.0676 | 0.053 | 0.0483 | 0.0505 | 0.0504 | 0.0557 | 0.0636 | 0.0542 | 0.0553 | 0.0527 | 0.0577 | – | – | – | – | –
MGESLFKGPRDYNPISSSICHLTNESDGHTTSLYGIGFGPFIITNKHLFRRNNGTLVVQSLHGVFKVKDTTTLQQHLVDGRDMIIIRMPKDFPPFPQKLKFREPQREERICLVTTNFQTKSMSSMVSDTSCTFPSGDGIFWKHWIQTKDGQCGSPLVSTRDGIIVGIHSASNFTNTNNYFTSVPKNFMELLTNQEAQQWVSGWRLNADSVLWGGHKVFMVKPEEPFQPVKEATQL [F163I] | 0.0528 | 0.0678 | 0.0692 | – | – | 0.057 | 0.0609 | 0.0771 | 0.0701 | 0.0524 | 0.0555 | 0.0594 | 0.0673 | 0.049 | – | – | – | –
MGESLFKGPRDYNPISSSICHLTNESDGHTTSLYGIGFGPFIITNKHLFRRNNGTLVVQSLHGVFKVKDTTTLQQHLVDGRDMIIIRMPKDFPPFPQKLKFREPQREERICLVTTNFQTKSMSSMVSDTSCTFPSGDGIFWKHWIQTKDGQCGSPLVSTRDGFIVGIHDASNFTNTNNYFTSVPKNFMELLTNQEAQQWVSGWRLNADSVLWGGHKVFMVKPEEPFQPVKEATQL [S169D] | 0.0523 | 0.0846 | 0.0676 | – | 0.0579 | 0.0606 | 0.0433 | 0.0618 | 0.0654 | 0.0635 | – | 0.0527 | 0.0683 | 0.0792 | 0.0576 | – | – | –
MGESLFKGPRDYNPISSSICHLTNESDGHTTSLYGIGFGPFIITNKHLFRRNNGTLVVQSLHGVFKVKDTTTLQQHLVDGRDMIIIRMPKDFPPFPQKLKFREPQREERICLVTTNFQTKSMSSMVSDTSCTFPSGDGIFWKHWIQTKDGQCGSPLVSTRDGFIVGIHSYSNFTNTNNYFTSVPKNFMELLTNQEAQQWVSGWRLNADSVLWGGHKVFMVKPEEPFQPVKEATQL [A170Y] | 0.0676 | – | 0.0741 | – | – | 0.0544 | – | – | 0.072 | 0.0626 | – | – | – | 0.0578 | – | 0.0576 | – | –
MGESLFKGPRDYNPISSSICHLTNESDGHTTSLYGIGFGPFIITNKHLFRRNNGTLVVQSLHGVFKVKDTTTLQQHLVDGRDMIIIRMPKDFPPFPQKLKFREPQREERICLVTTNFQTKSMSSMVSDTSCTFPSGDGIFWKHWIQTKDGQCGSPLVSTRDGFIVGIHSASNFTGTNNYFTSVPKNFMELLTNQEAQQWVSGWRLNADSVLWGGHKVFMVKPEEPFQPVKEATQL [N175G] | 0.0583 | 0.0629 | 0.0737 | – | – | 0.0711 | 0.0586 | 0.0611 | 0.0508 | 0.0648 | – | 0.0478 | 0.049 | 0.0556 | – | 0.0586 | 0.0626 | –
MGESLFKGPRDYNPISSSICHLTNESDGHTTSLYGIGFGPFIITNKHLFRRNNGTLVVQSLHGVFKVKDTTTLQQHLVDGRDMIIIRMPKDFPPFPQKLKFREPQREERICLVTTNFQTKSMSSMVSDTSCTFPSGDGIFWKHWIQTKDGQCGSPLVSTRDGFIVGIHSASNFTLTNNYFTSVPKNFMELLTNQEAQQWVSGWRLNADSVLWGGHKVFMVKPEEPFQPVKEATQL [N175L] | 0.0583 | 0.0872 | – | – | 0.0527 | 0.0542 | 0.0677 | 0.0563 | – | 0.0583 | – | 0.056 | – | – | 0.0479 | – | 0.0624 | 0.0685
MGESLFKGPRDYNPISSSICHLTNESDGHTTSLYGIGFGPFIITNKHLFRRNNGTLVVQSLHGVFKVKDTTTLQQHLVDGRDMIIIRMPKDFPPFPQKLKFREPQREERICLVTTNFQTKSMSSMVSDTSCTFPSGDGIFWKHWIQTKDGQCGSPLVSTRDGFIVGIHSASNFTNTNNEFTSVPKNFMELLTNQEAQQWVSGWRLNADSVLWGGHKVFMVKPEEPFQPVKEATQL [Y179E] | 0.0546 | 0.0601 | 0.0562 | 0.0574 | 0.0604 | – | 0.0523 | 0.0641 | 0.0612 | – | 0.0581 | – | 0.0689 | – | 0.0608 | – | – | 0.073
MGESLFKGPRDYNPISSSICHLTNESDGHTTSLYGIGFGPFIITNKHLFRRNNGTLVVQSLHGVFKVKDTTTLQQHLVDGRDMIIIRMPKDFPPFPQKLKFREPQREERICLVTTNFQTKSMSSMVSDTSCTFPSGDGIFWKHWIQTKDGQCGSPLVSTRDGFIVGIHSASNFTNTNNRFTSVPKNFMELLTNQEAQQWVSGWRLNADSVLWGGHKVFMVKPEEPFQPVKEATQL [Y179R] | 0.0711 | – | 0.0715 | – | 0.0436 | 0.0564 | – | 0.0543 | 0.069 | 0.0345 | 0.0569 | – | 0.078 | – | 0.0439 | – | 0.0569 | 0.0611
MGESLFKGPRDYNPISSSICHLTNESDGHTTSLYGIGFGPFIITNKHLFRRNNGTLVVQSLHGVFKVKDTTTLQQHLVDGRDMIIIRMPKDFPPFPQKLKFREPQREERICLVTTNFQTKSMSSMVSDTSCTFPSGDGIFWKHWIQTKDGQCGSPLVSTRDGFIVGIHSASNFTNTNNSFTSVPKNFMELLTNQEAQQWVSGWRLNADSVLWGGHKVFMVKPEEPFQPVKEATQL [Y179S] | 0.0559 | – | 0.0622 | – | 0.0588 | 0.0605 | 0.0459 | 0.0509 | 0.0693 | 0.0549 | – | 0.0539 | 0.0497 | 0.0487 | 0.0507 | – | – | –
MGESLFKGPRDYNPISSSICHLTNESDGHTTSLYGIGFGPFIITNKHLFRRNNGTLVVQSLHGVFKVKDTTTLQQHLVDGRDMIIIRMPKDFPPFPQKLKFREPQREERICLVTTNFQTKSMSSMVSDTSCTFPSGDGIFWKHWIQTKDGQCGSPLVSTRDGFIVGIHSASNFTNTNNYFTRVPKNFMELLTNQEAQQWVSGWRLNADSVLWGGHKVFMVKPEEPFQPVKEATQL [S182R] | 0.0649 | – | 0.0789 | – | – | 0.0617 | 0.0597 | – | 0.0605 | – | 0.0536 | 0.0636 | 0.0558 | – | – | 0.0403 | 0.0687 | –
